The full ranking holds about 33,000 sequences; the median of “E-score (-0.5 to 0.5)” is about -0.011, and the highest 2% start at about 0.28. Some of the results follow.
target: T1, Gcr1 (UniProt P07261); assay: PBM E-score (8-mer binding enrichment) (E-score (-0.5 to 0.5)); higher = stronger / more preferred TF binding; most listed sequences are background and not binding sites; conditions: protein concentration: 100 nM; construct: GST-full length
T1 sequence: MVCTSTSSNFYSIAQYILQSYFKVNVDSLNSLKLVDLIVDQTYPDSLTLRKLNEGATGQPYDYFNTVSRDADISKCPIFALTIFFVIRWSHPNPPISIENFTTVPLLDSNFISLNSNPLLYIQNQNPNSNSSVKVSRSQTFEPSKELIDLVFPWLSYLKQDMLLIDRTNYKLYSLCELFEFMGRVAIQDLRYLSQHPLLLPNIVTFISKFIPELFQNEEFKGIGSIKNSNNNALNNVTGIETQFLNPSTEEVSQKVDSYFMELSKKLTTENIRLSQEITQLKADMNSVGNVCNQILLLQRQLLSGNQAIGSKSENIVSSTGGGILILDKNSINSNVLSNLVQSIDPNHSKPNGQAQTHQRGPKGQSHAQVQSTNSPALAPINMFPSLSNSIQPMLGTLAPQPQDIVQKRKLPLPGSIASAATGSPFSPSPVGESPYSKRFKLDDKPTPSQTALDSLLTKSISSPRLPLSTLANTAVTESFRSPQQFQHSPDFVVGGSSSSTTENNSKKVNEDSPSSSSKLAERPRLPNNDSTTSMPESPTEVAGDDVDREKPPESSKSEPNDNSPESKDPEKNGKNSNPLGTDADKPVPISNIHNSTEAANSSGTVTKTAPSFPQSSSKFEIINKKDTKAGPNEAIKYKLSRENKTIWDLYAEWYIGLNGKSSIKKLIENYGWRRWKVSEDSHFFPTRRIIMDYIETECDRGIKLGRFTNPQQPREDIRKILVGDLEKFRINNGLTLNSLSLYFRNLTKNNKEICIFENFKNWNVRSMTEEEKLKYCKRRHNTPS
How it was run: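 Each ungapped eight-base word and its reverse complement, pooled, received an E-score from the Universal PBM Analysis Suite. Underlying scans, normalised with masliner, recorded fluorescent anti-GST bound to GST-tagged yeast transcription factors. These were applied at about 100-200 nM to universal all-10-mer Agilent arrays double-stranded by primer extension.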

Row | Sequence | PBM E-score
1 | GCCCGTTA | -0.0567
2 | CCCCCATA | -0.0645
3 | GAGAGTAA | 0.0892
4 | ATAGGTTG | 0.0783
5 | ACCACGCT | -0.145
6 | ATCGTTAC | -0.135
7 | GCCCGAGC | -0.206
8 | TCACATAA | -0.0117
9 | ACAATGTA | 0.016
10 | GACCCCAA | 0.093
11 | ACAGTTAT | 0.0965
12 | AGCTAGCA | 0.0297
13 | AGGTCGGG | -0.149
14 | GCAGAAGC | 0.0881
15 | GACGCTCA | 0.106
16 | AGTTTAAA | -0.00503
17 | AGATGTTG | 0.113
18 | ATGAGGGA | -0.0163
19 | CCTGCGAC | -0.156
20 | CAGCAGCG | 0.275
21 | CCACACCG | 0.0542
22 | AGCCTCTC | -0.122
23 | AGCCAGGG | -0.055
24 | ACTGGATG | 0.326
25 | AATGCAGT | -0.0302

Row | Sequence | PBM E-score
26 | CCATGTGC | 0.0687
27 | CTTGGGGC | 0.0599
28 | CGGGCCAG | -0.157
29 | AGATAAAC | -0.045
30 | CAGTCCAG | -0.198
31 | CGTAAGCA | -0.0231
32 | ATCATGAA | 0.0447
33 | GAATGTGC | -0.0334
34 | ACTGGACC | -0.00013
35 | GGCCCAAA | 0.132
36 | AAGACATG | -0.165
37 | CAGCGCAA | -0.0115
38 | CAGTCTCC | 0.0429
39 | CAGTTTGC | 0.132
40 | CATAAAGG | 0.0543
41 | CCTCCTAA | 0.124
42 | ATTGAGCC | -0.0506
43 | CACCTAAG | 0.0206
44 | TATAAGGA | 0.124
45 | TAAGTAGA | 0.0667
46 | CACCAGGC | -0.0202
47 | ATAAAAAC | -0.0362
48 | GATAGACC | -0.24
49 | AGTTATGG | 0.0681
50 | ATCTCAGA | -0.0288

Row | Sequence | PBM E-score
51 | CACCGATA | 0.0719
52 | CCCTTCAG | -0.0474
53 | TATGGTCA | 0.115
54 | CCGGCAGG | -0.253
55 | CTCATATC | -0.0739
56 | CCTTTGAG | -0.0418
57 | AGCTGTAA | -0.0854
58 | CCGGTGCA | 0.0853
59 | AACCGGGC | 0.00055
60 | GAAGCCCA | 0.368
61 | GATGTACC | -0.0844
62 | GACTACGA | -0.178
63 | ATTCACGC | 0.0667
64 | ATGATGCC | 0.238
65 | CCTACCAA | -0.0494
66 | AGGGTGCA | -0.0715
67 | CGGCGTGA | -0.0632
68 | CGTCGCAA | -0.0266
69 | CGTCGGCA | 0.0271
70 | CCCTGCGA | -0.163
71 | AATCCGCT | -0.061
72 | GCACAGGA | -0.0349
73 | GTCAAAGA | -0.189
74 | AAATCACC | 0.094
75 | AACTTGAA | 0.0158

Row | Sequence | PBM E-score
76 | CTTTCTGA | -0.0366
77 | CATTCCGC | -0.12
78 | ATAGACAG | -0.00126
79 | TACGTAGA | 0.0104
80 | ACAGCTCA | -0.146
81 | GGATATAC | 0.0934
82 | CGGCGTTA | -0.13
83 | ATCATAAT | 0.0389
84 | AACGCCTT | -0.0116
85 | CAGCTCAA | -0.13
86 | ATTTGGCC | -0.118
87 | AAGTATTC | -0.0309
88 | AGAGTGCT | -0.131
89 | CTCGGTTC | -0.183
90 | CAGATGCG | 0.108
91 | TTCGGCAA | 0.119
92 | CGCAACGA | -0.141
93 | ATTTCAGA | -0.032
94 | AACTTCGG | -0.0312
95 | GTTTCATA | 0.102
96 | CCACAAAC | 0.19
97 | GCCCGTAC | -0.121
98 | AGCCCTCA | -0.0713
99 | GTTGAACA | -0.125
100 | GGTCCCCA | 0.268

Row | Sequence | PBM E-score
101 | TAAGAAAA | 0.147
102 | CGTTCCAA | 0.03
103 | CTCAAAAA | 0.0947
104 | AAACTAGG | 0.0785
105 | ATTTCGGG | 0.0915
106 | AAAGGGAC | -0.169
107 | CGCTACGC | -0.0843
108 | ACGCTCAT | -0.126
109 | GGTCTGCA | -0.00311
110 | CTCTGTCA | -0.0979
111 | CTAAAGGC | -0.113
112 | GGGCATAC | -0.285
113 | CGTTTTTA | 0.0759
114 | CCTAGTGA | 0.0612
115 | ATTCAGAC | 0.0209
116 | CTACGATC | 0.126
117 | ACAATTGC | -0.0244
118 | ACATTTAC | -0.0137
119 | CGGCGTAG | -0.15
120 | ACCGGGTC | 0.0249
121 | ACTGGTAT | 0.241
122 | ACTCGACA | 0.0696
123 | CTTTATAA | 0.171
124 | GACTCGGA | -0.138
125 | CCATTTCG | 0.0427

Row | Sequence | PBM E-score
126 | CCACCCTA | 0.0045
127 | GGGCGCCA | 0.403
128 | GGTCTGAC | -0.327
129 | CTGTCCAA | -0.0328
130 | CGAAAGTA | -0.00293
131 | CTTACTTC | -0.0902
132 | CTCGGTTA | -0.0228
133 | ACGGAAGG | -0.165
134 | TCTTGTAA | 0.231
135 | CACCTGGA | 0.225
136 | CCATTTAG | 0.0199
137 | ATCCTGGG | 0.158
138 | AACATAAC | -0.0858
139 | CCGATTAG | 0.0563
140 | GAAAGGTA | 0.0356
141 | GCGTGCCC | -0.142
142 | AGATGCTG | 0.282
143 | TCAAGCCA | -0.194
144 | CTCCGGGC | -0.0116
145 | CCCCGAGC | -0.156
146 | CTATCAAA | 0.119
147 | GATGCTCC | 0.0373
148 | TCGGCGCA | -0.177
149 | GCAGCTGC | 0.249
150 | CTAGTGTA | 0.127

Row | Sequence | PBM E-score
151 | AAAAACCC | 0.0302
152 | CCTAGAGA | -0.145
153 | CCTACGAG | -0.253
154 | CTGGTGCA | 0.216
155 | CATGACTC | -0.185
156 | CAGAGCAA | 0.0409
157 | CCGGAACC | 0.325
158 | ATAGGTGA | 0.0207
159 | CTACTCGC | -0.0521
160 | TGCTGCAA | 0.209
161 | CCGACCAG | -0.107
162 | ATCCCCGC | 0.244
163 | AAGCCAGG | -0.216
164 | GATTATAC | -0.0491
165 | GCCCATAC | -0.0322
166 | AAATCTAT | 0.233
167 | CTGTGATC | -0.0288
168 | ACCGGAAA | 0.177
169 | GGATTTAA | 0.0302
170 | TCCCCCAA | -0.0523
171 | TGGCGGAA | 0.0594
172 | CATACGTC | 0.018

From the supplement of paper PMC3334620
